Results on 26 compounds are retold here after PubChem BioAssay AID493208 (National Center for Advancing Translational Sciences (NCATS), 2011).

Hit rate of the full screen: of about 44,000 compounds, about 340 (0.77%) were called active. Another 5% or so got no clear call; they are omitted. Calls come from the whole dose curve; as a rule, active = well fitted inhibition curve with a large enough effect; inconclusive = small, poorly fitted or top-dose-only effect; inactive = flat fitted curve, though single readings scatter. This is one part of the list.
Potency is the fitted concentration of half-maximal effect.

This assay in a line: Acumen qHTS Assay for Inhibitors of the mTORC1 Signaling Pathway in MEF (Tsc2-/-, p53-/-) Cells: Sytravon.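 For activity change, negative = inhibition: plate controls were DMSO for no effect and rapamycin for full effect.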 Note: nearly all actives have a fitted effect of over 50% in size. As to conditions: phospho-rpS6 immunofluorescence/PI, 24 h; series mostly up to 38.3 µM; activity change, negative = inhibition: at the top concentration. In outline:
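Tsc2-/-, p53-/- mouse embryonic fibroblasts (empty-vector line) exposed to compound 24 hrs at 37 C, fixed, immunostained for phospho-rpS6 and counterstained with propidium iodide. Acumen laser scanning gives % positive cells from Alexa 488/PI ratio, thresholded using 7.5 nM rapamycin; PI count gives viability.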
Regarding `Cc1ccccc1NC(=O)CCn1nc(-c2ccccc2)c2ccccc2c1=O`, the “activity change, negative = inhibition” value was inactive: -12.5%.

Turning to `CCOc1ccc(Sc2cc(C(=O)NCc3ccccc3Cl)c3ccccc3n2)cc1`, the “activity change, negative = inhibition” value was inactive: -0.552%.

As for `Cc1c(Cl)cccc1-n1nc(C)c2c(C)cc(=O)n(CC(=O)N3CCCc4ccccc43)c21`, the “activity change, negative = inhibition” value is inactive: 2.55%.

Consider `Cc1cc2oc3c(c(=O)c2cc1C)C(c1ccc(C(C)C)cc1)N(c1nc(C)c(C)s1)C3=O` (stereo unspecified), for which the “activity change, negative = inhibition” value is inactive: 4.22%.

As to `CCCNC(=O)C1CCN(c2nc3ccc(C)cc3[nH]2)CC1`, the “activity change, negative = inhibition” value was inactive: -0.731%.

Take `CCCOc1ccc(CNC(=O)C2CCN(C(=O)c3sccc3-n3cccc3)CC2)cc1`: the “activity change, negative = inhibition” value was inactive: -13.3%.

As for `COc1ccc(-c2nc3ccccc3n3c(-c4ccc(OC)cc4)c4c(=O)n(C)c(=O)n(C)c4c23)cc1`, the “activity change, negative = inhibition” value was inactive: 2.55%.

Regarding `Cc1ccc(CNC(=O)CCCN2C(=O)CCn3nc(-c4cccn4C)cc32)cc1`, the “activity change, negative = inhibition” value was inactive: 0.555%.

In the case of `CCOC(=O)c1ccc2c(c1)N(Cc1ccc(F)cc1Cl)C(=O)c1ccccc1S2`, the “activity change, negative = inhibition” value was inactive: 3.56%.

On to `Cc1cnc(=O)[nH]c1SCC(=O)Nc1cc(C(F)(F)F)ccc1Cl`, for which the “activity change, negative = inhibition” value is inactive: 2.65%.

For the compound `CCN1CCN(c2cc(C)c3cc(NC(=O)/C=C/c4ccc(C)cc4)ccc3n2)CC1`, the Potency was active: 18.5 µM.

With `COc1cccc(NC(=O)N(Cc2cn(C)c3ccccc23)C2CCCCCC2)c1`, the “activity change, negative = inhibition” value is inactive: -6.4%.

For `Cc1cccc(C(=O)Nc2ccc(N3CCC(N4CCCCC4)CC3)c(C(=O)O)c2)c1`, the “activity change, negative = inhibition” value is inactive: -4.91%.

`COc1cc(CNc2ccc3[nH]c(=O)[nH]c3c2)cc(Br)c1OCc1ccccc1F`: the “activity change, negative = inhibition” value is inactive: -9.08%.

Turning to `Cc1cccc(CN2CCN(CC(=O)Nc3c(C)cccc3C)S2(=O)=O)c1`, the “activity change, negative = inhibition” value was inactive: -2.89%.

As for `Cc1ccc(C)n1-c1nnc(N2CCCC(C(=O)NCc3cccc(Br)c3)C2)s1` (stereo unspecified), the “activity change, negative = inhibition” value is inactive: -11.6%.

On to `NC1=NC(c2cc(F)cc(F)c2)n2c(nc3ccccc32)N1` (stereo unspecified), for which the “activity change, negative = inhibition” value was inactive: 0.839%.

For `CC1=C(C(=O)NCc2ccc(Cl)cc2)C2(CCC(C)CC2)OC1=O` (stereo unspecified), the “activity change, negative = inhibition” value is inactive: 1.13%.

Consider `Cc1ccc(CNC(=O)CCc2c(C)nc3c4c(C)cc(C)nc4nn3c2C)cc1`, for which the “activity change, negative = inhibition” value is inactive: -0.334%.

As for `Cc1ccc(Cl)cc1NC(=O)CC1Sc2ccccc2NC1=O` (stereo unspecified), the “activity change, negative = inhibition” value is inactive: -13.6%.

Regarding `CCCCOc1cccc(C(=O)N(Cc2ccc(Br)o2)C2CCS(=O)(=O)C2)c1` (stereo unspecified), the “activity change, negative = inhibition” value was inactive: -0.942%.

For the compound `NC(=O)CSc1oc(-c2cccs2)nc1S(=O)(=O)c1ccc(Br)cc1`, the “activity change, negative = inhibition” value was inactive: 0%.

`Cc1cc(F)ccc1NC(=O)C1CCN(S(=O)(=O)c2ccc3c(c2)CCCC(=O)N3)CC1`: the “activity change, negative = inhibition” value was inactive: -1.61%.

Take `O=C(Nc1cccc(Cl)c1)C1CCN(S(=O)(=O)Cc2ccccc2)CC1`: the “activity change, negative = inhibition” value is inactive: -6.02%.

On to `COC(=O)c1ccc(NC(=O)N2CCN(c3nnc(C)c4c(C)n(-c5ccccc5)nc34)CC2)cc1`, for which the “activity change, negative = inhibition” value was inactive: 7.79%.

Take `O=C(Cn1c(=O)c(C(F)(F)F)nc2ccccc21)Nc1ccc(Br)cc1F`: the “activity change, negative = inhibition” value is inactive: 0.989%.
